Assay results: the supplement of paper PMC10441789
The other results are listed elsewhere or left out. Antibody binding of pooled human sera (four to six donors per pool; dilution not stated) to peptides of the Trypanosoma cruzi antigen TSSA on microarrays. Quantile-normalised fluorescence in arbitrary units, mean of duplicate arrays; higher = more binding. No active / inactive call. The uninfected pools are read here as the healthy donors of the same country. The strongest signals lie near the top of the scale (about 60,000).

The sequences below were run on pooled sera of uninfected people, Colombia (assay: antibody binding signal (normalised fluorescence) (arbitrary fluorescence units); higher = stronger serum antibody binding to peptide).
Method: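 Microarray of 15-residue peptides over residues 30-55 of Trypanosoma cruzi TSSAII, each with 1 to 10 substitutions at naturally variable positions, probed with one serum pool per country.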
Sequence SGTDNKPAAGGAPSQ has an antibody binding signal of 283.
KENKAAAGETPSQSG showed an antibody binding signal of 146.
SGKDNKPATGGAPSP was tested, and the antibody binding signal was 405.
In the case of PSGKENKAATGETPS, the antibody binding signal was 903.
For GKENKTAAGETPSQS, the antibody binding signal was 201.
TPPSGKDNKTAAGET showed an antibody binding signal of 299.
KKAATGETPSPSGAS gave an antibody binding signal of 198.
ENKAATGGTPSPSGA was tested, and the antibody binding signal was 375.
Work on STPPSGKENKTAAGG yielded an antibody binding signal of 619.
In the case of GKDNKTATGEAPSQP, the antibody binding signal was 330.
NKAAAGGAPSPPGAS showed an antibody binding signal of 777.
NKPAAGEAPSPSGAS was tested, and the antibody binding signal was 236.
In the case of GTDKKPAAGEAPSQS, the antibody binding signal was 153.
TPPSGKEKKPAAGET was tested, and the antibody binding signal was 419.
GTDKKPAAGETPSPP showed an antibody binding signal of 208.
Work on TPPSGTDKKPATGET yielded an antibody binding signal of 355.
Sequence KDKKTATGGAPSPSG has an antibody binding signal of 81.
GKEKKTAAGGAPSPP showed an antibody binding signal of 172.
PPSGTDKKAAAGEAP showed an antibody binding signal of 498.
Work on TPPSGKDNKPAAGGA yielded an antibody binding signal of 203.
With GKENKTATGGTPSPS the antibody binding signal was 187.
NKAAAGEAPSPSGAS was tested, and the antibody binding signal was 329.
SGTEKKTATGEAPSP gave an antibody binding signal of 182.
For PSGTDNKTAAGGAPS, the antibody binding signal was 306.
For GKDNKAATGEAPSPS, the antibody binding signal was 392.
KEKKAATGGTPSQSG showed an antibody binding signal of 174.
KPAAGGAPSPPGASS showed an antibody binding signal of 131.
In the case of KDNKAATGGAPSPPG, the antibody binding signal was 149.
In the case of PPSGTEKKAATGEAP, the antibody binding signal was 574.
Work on DNKAAAGGTPSPSGA yielded an antibody binding signal of 741.
In the case of KEKKPAAGEAPSQPG, the antibody binding signal was 84.1.
In the case of ISTPPSGKDKKAATG, the antibody binding signal was 153.
With GKENKAATGEAPSPS the antibody binding signal was 187.
Sequence GKENKAAAGGTPSPS has an antibody binding signal of 178.
In the case of GTEKKTAAGGAPSQP, the antibody binding signal was 283.
KDKKPAAGGTPSPPG gave an antibody binding signal of 112.
SGKDNKTATGEAPSQ was tested, and the antibody binding signal was 386.
For NKAATGGAPSQPGAS, the antibody binding signal was 460.
With KKTATGETPSQPGAS the antibody binding signal was 153.
For GTDKKTATGGAPSQS, the antibody binding signal was 94.7.
